First the molecules themselves.
T1: UNK ZnF1-3 (human, UniProt Q9C0B0 31-174)
T1 sequence: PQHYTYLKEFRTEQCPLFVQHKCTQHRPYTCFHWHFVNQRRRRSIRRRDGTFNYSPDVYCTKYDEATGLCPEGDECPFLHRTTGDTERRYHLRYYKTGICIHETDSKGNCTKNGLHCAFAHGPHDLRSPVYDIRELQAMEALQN

B1: chr2:198351390:198351391:-_ENSG00000144381_ENST00000345042|hu_hu|hu_hu_hu_mus_False|8_48 (ssRNA)
RNA: GGGAGUUCUACAGUCCGACGAUCUCAUUCCCACCCUCCACAGAAAGGCUGCUUCUGAACUCUCAUGUGGUGACACAGCGCUACAGUCCUGAUUUUAACAGAACAGUAGAGAUGCCUCAGUGAUUUAUUAAGUUGAAAGGACACCAACAGAGGAUUGAGCAUCA
B2: chr17:64801638:64801639:+_ENSG00000154229_ENST00000413366|hu_mus|hu_hu_hu_mus_False|8_28 (ssRNA)
RNA: GGGAGUUCUACAGUCCGACGAUCUAUAUAUAUAUAUACAUAUGUACACAUAUAUAGUAAAACCCUAGUUAAACGUGUAAAGUAGCCAUUCAUUUUUAAAAUUACAUCUACAUUUAAAAAUUAAUAUAUCUGAUACAGUGCCAGCAACAGAGGAUUGAGCAUCA
B3: chr5:36177297:36177298:+_ENSG00000145604_ENST00000274255|hu_mus|FALSE|FALSE (ssRNA)
RNA: GGGAGUUCUACAGUCCGACGAUCCUUUAGCAUGAUACUGUCACUUAAGUCGAGGCGGAUGAGGUUGGGGCAUCGUUUAAUUAUGGUACAAAGAUCUGUUUUCUGGAGGUUCUUUCGGUAGCCGCUGAGGUUCAGCUGGGUGAUCAACAGAGGAUUGAGCAUCA
B4: 44445012_44445132_2323_3pUTR_ENSMUSG00000032097_ENSMUST00000170489|mouse|control|control (ssRNA)
RNA: GGGAGUUCUACAGUCCGACGAUCGAGACUUCAACGUGAAACCAAAAUGAAGAGGCAAAGAAAUAAAAAAGAAAAUAGAACAUGACUCUGUUGAUUCCUUGGGCUGUGUGUAAAGAUGAUAUUCUUAAUGGUCUUGUAGCAUAACAACAGAGGAUUGAGCAUCA
B5: chr1:60041781:60041782:+_ENSMUSG00000041040_ENSMUST00000036540|mus_hu|mus_mus_mus_hu_False|58_98 (ssRNA)
RNA: GGGAGUUCUACAGUCCGACGAUCAAGUUUACAAUAGCUCAACUUUAGCAGUAGUGGCAAAUUUUCUUUUAUUUUCCUUCCUAAAAGAAAAUCUUUAUAACCCAGUCCUAGUCUUGGACAUAGUGAAAGCUAUAAAUUCUGACUCAACAGAGGAUUGAGCAUCA
B6: chr2:153583694:153583695:+_ENSMUSG00000027479_ENSMUST00000028981|perfect_dup|motif|central (ssRNA)
RNA: GGGAGUUCUACAGUCCGACGAUCAAAAAACUUCUUGAACCAUUGAACAAAUUCAAAAUUGUCCUGAAAUUUUCCUUUUACGGAUUUAUCCACAGGAAUUAUUUUGUCAACGCCCAUCCUCUUGAAGCCUGCUUGUAGUAUUUUCAACAGAGGAUUGAGCAUCA
B7: 152858176_152858296_649_CDS_ENSMUSG00000042631_ENSMUST00000037235|mouse|control|control (ssRNA)
RNA: GGGAGUUCUACAGUCCGACGAUCCUGCAGUAGCCAGACGCAGAGGCGGCAGCAGCGGCGGCGGUAGGUGCCGGCCGAGGAUGGUGCGGGCCGGGGGACCAGCUCCGCGCUACCUUCUUUGGUCCGGAAGGCGACAGCACUGUCCAACAGAGGAUUGAGCAUCA
B8: chr5:71493198:71493199:+_ENSG00000131711_ENST00000296755|hu_hu|FALSE|FALSE (ssRNA)
RNA: GGGAGUUCUACAGUCCGACGAUCUGCUGGUGGUUUUUCAAUGACUUCUGUAGGGAGAUGACUGGAUUUCUCGUCAGUAGGAGAUUGAUAGUAAGGUGUGUGACCAGCACUGCCAGUCACGGACUGAGAUGGUGACACCACUUCCAACAGAGGAUUGAGCAUCA
B9: chr2:168009416:168009417:-_ENSMUSG00000051149_ENSMUST00000088001|perfect_dup|motif|central (ssRNA)
RNA: GGGAGUUCUACAGUCCGACGAUCCAUAUGGUUGAGUAGGGUAUCUGUAGGCAAAUAGCGAUUACAGUAGAGGCAUUUGCGGGUAAAAUUGUGUAUUUUCAUAAUGUAGUUAGCUACGGCUGGGACUUUCUCAGCUUUAUGCUCCAACAGAGGAUUGAGCAUCA
B10: 120674884_120675087_4202_CDS_ENSMUSG00000025153_ENSMUST00000055655|mouse|control|control (ssRNA)
RNA: GGGAGUUCUACAGUCCGACGAUCCUGGCUUAGGAGGCUGGGCGCAGGCUGCACCUCAGAGGGUAGGCAGGCCAGGGUCUCCCCAAGGGCAUGUCCUUUGAGCACUGUGUGCACUAGCAGGAAACCACCUUCCUUGAGGGCAGCCAACAGAGGAUUGAGCAUCA
B11: chr17:1257564:1257565:-_ENSG00000108953_ENST00000571732|hu_hu|FALSE|FALSE (ssRNA)
RNA: GGGAGUUCUACAGUCCGACGAUCACCCUGCAUGUCUGAAGUCCAUAGUGUCAGAUUAUCACGUAACAACUGCAUGAUAAGUGUAGAGUCCUUAUAGCUUUCUUCACUCAGCGUAUCCAGUUCUGCAAUUGCAUCAUCAAAAGCCAACAGAGGAUUGAGCAUCA
B12: 116602748_116602868_974_CDS_ENSG00000151553_ENST00000369248|human|control|control (ssRNA)
RNA: GGGAGUUCUACAGUCCGACGAUCAUCCAUCUGAUGAGGAGGCUCAUCUUCCAAUUCUGUUUGCUCCAUUCCAGUAGCACCAGAUAGUUCCUCUGGUUGACGGGACUGUCCUGUAUCUGUUGACAAGGAAUCCUGACCUUUUAACAACAGAGGAUUGAGCAUCA
B13: chr12:66249844:66249845:-_ENSMUSG00000047534_ENSMUST00000052201|mus_mus|FALSE|FALSE (ssRNA)
RNA: GGGAGUUCUACAGUCCGACGAUCUAACAGCUGUCUGCUAGUUCUAUCAGAUGCCUUUCCUUCAGUGAGAAAGUCCUUGCUAACAGCAGAUUUGUAAUGUGACUCUUUAGCAGAAGAUCGAGGUCUCUUUGGUGUGAUAUAACACAACAGAGGAUUGAGCAUCA
B14: chr3:176767854:176767855:-_ENSG00000177565_ENST00000430069|hu_hu|hu_hu_hu_mus_False|28_68 (ssRNA)
RNA: GGGAGUUCUACAGUCCGACGAUCGACAUCCUUGUUACUGGGCACGUCCUGCCCUCCUUCCCGUAUGCAAUGUCUAAGCACGAGCUGCGUAGGGCCACUCGUGCUGUUCUCACUAAGGUUCCAGAUUCUUGCCGUGGAGUCUCCCAACAGAGGAUUGAGCAUCA

This is one part of the list.

The assay has as its target T1, UNK ZnF1-3. The assay can be described thus: nsRBNS (natural sequence RNA bind-n-seq); RBNS binding buffer (assumed for nsRBNS): 25 mM Tris pH 7.5, 150 mM KCl, 3 mM MgCl2, 0.01% Triton X-100, 500 ug/ml BSA, 20 U/ml SUPERase-In, 4 C; UNK is unkempt and MSI1 is Musashi-1; names of the RNAs are library labels; protein concentration not given here; high values mean tight binding.
The molecule B1 registered a binding signal of 1.47 enrichment R.
In the case of B2, the binding signal was 1.18 enrichment R.
With B3, the binding signal was 1.32 enrichment R.
Regarding B4, the binding signal was determined as 2.02 enrichment R.
With B5, the binding signal is 0.456 enrichment R.
In the case of B6, the binding signal is 0.711 enrichment R.
The molecule B7 displayed a binding signal of 0.836 enrichment R.
B8 showed a binding signal of 0.814 enrichment R.
To B9 belongs 2.18 enrichment R; to B10, 0.714 enrichment R.
Consider B11, for which the binding signal is 0.954 enrichment R.
Turning to B12, the binding signal came to 0.576 enrichment R.
To B13 belongs 1.03 enrichment R.
Regarding B14, the binding signal was 0.466 enrichment R.

Source of the values: article PMC12136788.
